# Laboratory results published in the supplement of paper PMC11417369.
# ± gives the standard deviation of the averaged measurements. The list shows a part of the results.
# Test system: PfAP2-G AP2 domain (GST-tagged)
# Test: gcPBM binding intensity (ln(normalized median fluorescence intensity)); higher = stronger DNA binding
# Outline: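 The binding buffer was 1× PBS containing 1% milk, 0.2 mg/ml BSA, 0.5% salmon testes DNA and 0.03% Triton X-100. In it, GST-tagged P. falciparum DNA-binding domains expressed in E. coli were applied for 1 h to an Agilent 4 × 180k array of primer-extended double-stranded 36-bp intergenic genomic probes plus negative controls. Binding intensity, read with Alexa488 anti-GST antibody and a 488 nm scan, is the highest Masliner-normalised natural-log median intensity across replicate spots of either probe orientation.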
row,Sequence,gcPBM binding intensity (ln)
1,GTTATATTTTTTTTTTGTACATAATATTGTATTGAC [XGTACX_site6338],11.1 ± 0.69
2,ACCTGAAGAGTCAAACGTACAAATATTATAAAATGA [XGTACX_site3188],11 ± 0.64
3,TTAATACATTAAATATGTACTTATATATCTCAACTA [XGTACX_site3997],11.2 ± 0.67
4,ACATGTCAAACATTTGCACACAAAAAAATAAAAATT [CACACA_site691],10.2 ± 0.25
5,TCATCCGTTTTAAGAAGTACATATTTGAACATATAA [XGTACX_site8040],11.3 ± 0.75
6,CATAGGATTATACTTTTGGAATATTATTAAATATGT [XGTACX_negctrl_site75],10.1 ± 0.18
7,TTTATTTTTTAATGTTGTACAATGTTGTTTAATCAA [XGTACX_site6489],11.2 ± 0.88
8,TTTTTTTCTTTTCAAACACACAATTGGTATATATTA [CACACA_site3320],10.1 ± 0.28
9,TAGAACAAATAAAACACACACATATATATATATATG [CACACA_site2768],9.99 ± 0.16
10,TATATACAAAAATGCACACGAAAAGTAATATATATA [CACACA_site4173],10.1 ± 0.33
11,TATATAAAAATCAATTGTACTTTTTTTTTTTTTTTT [XGTACX_site7327],11.4 ± 0.79
12,ATATATAAAATTATATGTACATATATAATATATATA [XGTACX_site529],11.2 ± 0.82
13,TATATATATATGTGCACACATATATAATATGTATAA [CACACA_site715],10.6 ± 0.57
14,AAATAACACATATATACACACATATAACTATAATAT [CACACA_site7298],9.905 ± 0.064
15,TGTAAATATTTATTCACACATAATCAATTAGAAAAA [CACACA_site5944],10 ± 0.13
16,ATCACAAAATGGAATGTTCTATGATATATATGTATA [XGTACX_negctrl_site460],9.58 ± 0.13
17,AAAAAAAAAAAAAACACACACACAATAGTATATAAA [CACACA_site957],10 ± 0.26
18,TTGTTACTGTTTTGGTGTACAAAAAAAAAAAATATA [XGTACX_site5762],11.4 ± 0.98
19,TACTTACTTACTTACTCACACACATATACAAAGAAA [CACACA_site3348],10.6 ± 0.44
20,TATATATATTTTTATGCACACACAAAGAAAATTTTC [CACACA_site8931],10.2 ± 0.18
21,AATACAGATAATACAACACACAAGTAATATAAACCT [CACACA_site5900],9.975 ± 0.021
22,TATAAATACAGATACACACACACACCGATATATATA [CACACA_site5271],10.1 ± 0.21
23,AATATATAAATCTATTGTACATAAAGAGGATAATAA [XGTACX_site1022],11 ± 0.64

row,Sequence,gcPBM binding intensity (ln)
1,GATGATTATATATATACGCACACTTTTTTTTTTTTT [CACACA_site2652],10.11 ± 0.092
2,CTCATTCTTTTTTGATGTACTTTTTTTTTTTAAGTT [XGTACX_site2875],11.6 ± 0.81
3,ATATATATATATATATGTACATATTTATTTATTTAT [XGTACX_site5161],11.1 ± 0.58
4,AGCACAGACTAATAAACACACACATATATATATATA [CACACA_site8021],10.1 ± 0.33
5,ATAGTATACGGACACACACACACACCGATATATATA [CACACA_site5032],11.3 ± 0.76
6,AAAAGAGAAACATTTACACACAAATATAGATATATG [CACACA_site1027],9.98 ± 0.014
7,TTGTATAATTTAACAAGTACAAAATAAATTTGTATA [XGTACX_site5505],11 ± 0.73
8,TTCAATTAAAAAATATGTACGCATAAATTGATATAT [XGTACX_site4289],11.4 ± 1
9,TTTTATGGAAAGTGTTGTACATATTTTTGTATATGT [XGTACX_site7356],11.4 ± 0.76
10,CACACGTATAAATATACACACTAAAATACACGCACA [CACACA_site7876],10.4 ± 0.29
11,TATCTTATATTTACACGTACGTAGAATTTATAAGTT [XGTACX_site3460],11.3 ± 0.78
12,TTTTATTAATATTATTTATCTTCTCAAAAGATATAT [XGTACX_negctrl_site202],9.87 ± 0.23
13,TTTAATATGTATTTTTTTTTTTTTTTTTTTTTTTTT [XGTACX_negctrl_site440],11 ± 0.6
14,TTTTTTTTTTTTTTTTGTACATATTTCTTATAAGTG [XGTACX_site6459],11 ± 0.98
15,TATAACAGGAATTATATATATATATATATATATTAT [CACACA_negctrl_site911],9.465 ± 0.021
16,CTTTTTTTAGTTAGGTGTACAATTTGTTATTATTAG [XGTACX_site1507],11.5 ± 0.77
17,AACTTCTTTTTTATAACACACAAAATATAAATACAA [CACACA_site4313],10.2 ± 0.43
18,GGAAGAATATATAGGACACACATACAATAATAAATA [CACACA_site6124],10.8 ± 0.64
19,TTTTTTTTTTTTTTTTTGCAATATATTTTAAAAAAG [CACACA_negctrl_site25],9.65 ± 0.44
20,TTTTTTTTTTTTTTTTTTTTTTGTGAAACTAAGTAA [CACACA_negctrl_site273],9.68 ± 0.46
21,AACATATAAATGATATGTACACACATTTATATATAT [XGTACX_site7364],11.4 ± 0.53
22,CAAATTAAATATTATGCATGTACCAAACATCCTACC [TGCATGCA_site35],10.8 ± 0.52
23,TAATACAAAAAGAAAAGTACATGTTAATTATTATTT [XGTACX_site2196],11.2 ± 0.67

row,Sequence,gcPBM binding intensity (ln)
1,TTTTATATCTAGTTTATATTTCTTAAATAAATAAAT [GTGCAC_negctrl_site245],9.83 ± 0.028
2,CAAATACATGGACACACACACATATACAGATATATA [CACACA_site5854],11 ± 0.61
3,TTGAAGTTTGATTGTAGTACGAATTGGTAGTTTTTT [XGTACX_site6854],11.1 ± 0.79
4,TTTTTTTTTTTTTTCTGTACTTAAAAAGGGGGAGAA [XGTACX_site3799],11.3 ± 0.95
5,CAAACATGTTCAAATTGTACAATAGAAAATATATAT [XGTACX_site1557],10.7 ± 0.4
6,GATTATATATACAAAAGTACATTATAAAAATTTCAT [XGTACX_site4223],11.2 ± 0.89
7,CCCTTAAAATATAAATGTACAAAATTATTTGTATGT [XGTACX_site6164],10.9 ± 0.57
8,ATAAACATCTAGTGCTGTACACAATTTGATTTTTTT [XGTACX_site3110],11.4 ± 0.81
9,TTCTTTTAATTACGAGTGCATACCATATGACATTAT [GTGCAC_site9819],10.5 ± 0.31
10,GTGAATATTAAAAAATGTACACAATTATATGTATAT [XGTACX_site4834],11.2 ± 0.73
11,AGAAAAGAGAGAAAAACATGCACATGATATTATAAA [TGCATGCA_site120],9.4 ± 0.4
12,CATATATAACATATAACACACATACTTAGTATTACA [CACACA_site5674],10.1 ± 0.24
13,ATGATAAACATGGATACACACATATATATTACATAT [CACACA_site1576],10.4 ± 0.28
14,ATAATATTTTATATAGTGCATTTGCTCATTATATAT [GTGCAC_site9528],9.775 ± 0.035
15,ACATATATATACTATCGATTAATAAATTTGTTTTTT [CACACA_negctrl_site881],9.975 ± 0.007
16,TATTTATAACATTGTACACACAAAGAAATAATATTA [CACACA_site7422],11.3 ± 0.84
17,ACGTATGTATATTACACACATACATATTATTCACTA [CACACA_site204],10.1 ± 0.16
18,AGGTTAATCGAAATTGCATGTGACGAAAAATCAAAA [TGCATGCA_site666],9.89 ± 0.11
19,TGAGTATATATAAATACACACCAAATGTTAATATAT [CACACA_site5022],9.88 ± 0.028
20,AAATATACATACATATGTACATATATATATATATAT [XGTACX_site8202],11.1 ± 0.69
21,ATAGTTAAAAAAAAAAAAAAAAAAAAAAGAGAGAGA [CACACA_negctrl_site1307],10.1 ± 0.38
22,ACAATAAAGAACAGTATGCACTTTTATGCATGCGTA,9.94 ± 0.028
23,TACATGCAAAAAATTCCACACACACCCCCACATATA [CACACA_site8329],11 ± 0.57

row,Sequence,gcPBM binding intensity (ln)
1,TAAAATATAGGAAATACATGCATATTAAATATTCCT [TGCATGCA_site1057],9.62 ± 0.14
2,TACTTCATTCATTTTACACACATATAAACCCTTTTA [CACACA_site3229],10.07 ± 0.049
3,ACTAATACATAAAAAAGTACAAATATGAGTATTAAC [XGTACX_site7281],11.5 ± 0.86
4,AATATTCAATATAAAGTGCATTATTGTGGACCTAAT,10.7 ± 0.49
5,TATATAGCTAAAAACACACAAATATGTACACATAAA [CACACA_site7665],11.4 ± 0.73
6,CTTTTTCTTTTCCGGCGTACAGACTTAGTAGTAGAT [XGTACX_site2268],11.6 ± 0.88
7,TTTTTTAAATTGGTAGTGCAATATGATTGAACAAAA [GTGCAC_site9715],10.4 ± 0.39
8,AAAAAAAAAAAAAGTACACACATACAGATAAATATA [CACACA_site5067],11.6 ± 1
9,ATAAATTGATTCAACACACACATATGTAGGAAGTTA [CACACA_site3253],9.935 ± 0.078
10,TTAATCAAATTACTATGTACATAAAACATATAAGAA [XGTACX_site381],11.2 ± 0.76
11,TATTTTTTTTCAAAAAAGTTTATTTAGAACTAAATA [XGTACX_negctrl_site487],9.745 ± 0.049
12,GGGTATACCAATATAACACACATATATATATAATAT [CACACA_site450],9.9 ± 0.014
13,AAATTATTAAAAAAGTGTACATATTTTTATAATACC [XGTACX_site5610],11.5 ± 0.71
14,ATAAGCATACATATTACACACATATAACATCTATAT [CACACA_site7219],9.98 ± 0.014
15,TATATATATATACATACATGCATATATATATATATA [TGCATGCA_site513],9.81 ± 0.59
16,AATACAATAAAAAAAAGTACACATGTATAAAAAATT [XGTACX_site8270],11.6 ± 0.8
17,AATATATCTTATTTAACACACACAAAGAAAATAGAA [CACACA_site9242],10.24 ± 0.099
18,TGTTATCAGAAAGCACGTACATATAATTATATATTC [XGTACX_site4188],11.4 ± 0.92
19,TTCTTATTTGTACTAGTGCAATAGAAAATAAATAAA [GTGCAC_site9731],11.2 ± 0.71
20,TATATAATATATATATGTACACATTTGCAAACAATG [XGTACX_site6941],11.6 ± 0.99
